Hit rate of the full screen: of about 44,000 compounds, about 340 (0.77%) were called active. About 5% were inconclusive and are not listed. Calls come from the whole dose curve; as a rule, active = well fitted inhibition curve with a large enough effect; inconclusive = small, poorly fitted or top-dose-only effect; inactive = flat fitted curve, though single readings scatter. This is one part of the list.
Assay: Acumen qHTS Assay for Inhibitors of the mTORC1 Signaling Pathway in MEF (Tsc2-/-, p53-/-) Cells: Sytravon; note: nearly all actives have a fitted effect of over 50% in size;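 for activity change, negative = inhibition: plate controls were DMSO for no effect and rapamycin for full effect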
Conditions: phospho-rpS6 immunofluorescence/PI, 24 h; series mostly up to 38.3 µM; activity change, negative = inhibition: at the top concentration
Method in brief: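 Cell-based qHTS: Tsc2-/- p53-/- MEF, 24 h cpd, 37 °C; fix/perm, anti-phospho-S6 Alexa-488 + PI; Acumen 488 nm scan; pS6/PI ratio, % positive cells; rapamycin 7.5 nM = inhibition ref; PI count = viability.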
Potency is the fitted concentration of half-maximal effect.

Row | SMILES | activity change, negative = inhibition | Potency
1 | Cc1onc(-c2ccc(F)cc2F)c1C(=O)Nc1cccc(C(F)(F)F)c1 | inactive: 1.59% | –
2 | CN(C(=O)C(=O)Nc1ccc2nc3n(c(=O)c2c1)CCCCC3)c1cccc(C(F)(F)F)c1 | inactive: 2.37% | –
3 | CCc1ccc(CNC(=O)c2cc(-c3ccc(Br)s3)nc3ccccc23)cc1 | inactive: -8.63% | –
4 | O=C(Nc1ccccc1)c1cccc(S(=O)(=O)Nc2cccc(F)c2)c1 | inactive: -8.06% | –
5 | CCCOc1ccc(C2C(=O)N(C3CCC(C)CC3)CC(=O)N2CCC2=CCCCC2)cc1OC (stereo not drawn) | inactive: 7.47% | –
6 | COc1ccc(OC)c(-c2cc(C(=O)NC(C)c3ccccc3)no2)c1 (stereo not drawn) | inactive: -1.09% | –
7 | COc1cccc(-c2ccc3c(N)c(C(=O)NCc4ccc(Cl)cc4)sc3n2)c1 | inactive: -4.53% | –
8 | Cc1cccc(N2CCN(C3(c4ccccc4)C(=O)c4ccccc4C3=O)CC2)c1C | inactive: -3.67% | –
9 | Cc1ccc(S(=O)(=O)N2CCOCC2)cc1C(=O)Nc1ccccc1C(=O)O | inactive: -0.641% | –
10 | Cc1ccc2onc(CC(=O)N(C)c3ccccc3)c2c1 | inactive: -3.73% | –
11 | O=S(=O)(Nc1ccc2nc(-c3cccc(Cl)c3)oc2c1)c1ccccc1 | inactive: 0.974% | –
12 | O=S(=O)(Nc1nc2n(n1)C(c1ccc(F)cc1)C=C(c1ccccc1)N2)c1ccc(Cl)cc1 (stereo not drawn) | inactive: 2.06% | –
13 | CCn1cc(C(=O)NCc2ccc(C)cc2)c(=O)c2cc(S(=O)(=O)N3CCCCCC3)ccc21 | inactive: -6.5% | –
14 | CCOc1ccc(CNC(=O)c2ccc(NC(=O)N3CCCCc4ccccc43)cc2)cc1OC | inactive: -6.22% | –
15 | COc1ccccc1CNC(=O)c1ccc2nc(-c3ccccc3)c(-c3ccccc3)nc2c1 | inactive: 4.52% | –
16 | O=C(CCc1nc2cccnc2n1Cc1cccs1)Nc1cccc(Cl)c1 | inactive: -0.225% | –
17 | Cc1nn(C)c2c1c(C(F)(F)F)cc(=O)n2Cc1cccc(Br)c1 | inactive: -3.99% | –
18 | CCOC(=O)c1cc(-c2ccccc2)n(CCC(=O)Nc2ccc(Cl)c(C(F)(F)F)c2)c1C | inactive: -22.5% | –
19 | Cc1cccc(NS(=O)(=O)c2ccc(-n3cccn3)cc2)c1C | inactive: -2.98% | –
20 | CC(C)CNc1nc(Oc2ccc(OCC(N)=O)nn2)nc(N2CCOCC2)n1 | inactive: -4.36% | –
21 | Cn1cc(S(=O)(=O)N2CCCCCC2)cc1C(=O)NCc1ccccc1Cl | inactive: -6.41% | –
22 | CCCNC(=O)C1CCN(c2ncnc3c2nc2n3CCCCC2)CC1 | inactive: 0.422% | –
23 | CCCC(=O)NCC(c1ccc2c(c1)OCO2)N1CCN(c2ccccc2)CC1 (stereo not drawn) | inactive: -3.02% | –
24 | CCOC(=O)N1CCc2c(sc(NCc3ccc(OC)c(OC)c3OC)c2C(=O)Nc2ccc(OC)cc2OC)C1 | inactive: -7.7% | –

Row | SMILES | activity change, negative = inhibition | Potency
25 | CCc1ccc(-n2c(=O)c3sc4ccccc4c3n(Cc3cccc(F)c3)c2=O)cc1 | inactive: -0.964% | –
26 | CCCCCOc1ccc(/C=C/C(=O)Nc2sc(C(C)=O)c(C)c2C(=O)OCC)cc1OC | inactive: -10.3% | –
27 | CCc1nnc(NC(=O)c2nc(SCc3ccccc3C)ncc2Cl)s1 | inactive: 2% | –
28 | Cc1oc(C)c2c(=O)cc(-c3ccc4c(c3)OCO4)cc(OC(=O)c3ccccc3Cl)c12 | inactive: 0% | –
29 | Cc1c(Cl)cccc1NC(=O)Cn1c(=O)nc(-c2ccccc2)c2ccccc21 | inactive: 0% | –
30 | COc1ccc(C2=CC(c3ccccc3F)n3ncc(C(=O)Nc4ccc(C)cc4)c3N2)cc1 (stereo not drawn) | inactive: -4.44% | –
31 | CCN(CC)C(=O)c1sc(NC(=O)C(C)Sc2nc(-c3ccccc3)cc(C(F)(F)F)n2)c(C(=O)OC)c1C (stereo not drawn) | inactive: 1% | –
32 | CCC(=O)Nc1ccc(S(=O)(=O)NCc2ccc3c(c2)CCN3C(=O)c2ccc(C)cc2)cc1 | inactive: -10.8% | –
33 | COC(=O)c1ccccc1NC(=O)CCC(=O)N1CCOc2ccccc21 | inactive: 4.63% | –
34 | Cc1cccc(-c2c3c(=O)n(C)c(=O)n(C)c3cn2-c2cc(N)c(Cl)cc2Cl)c1 | inactive: -11.5% | –
35 | CN(C)c1oc(/C=C/c2ccc(F)cc2)nc1C#N | inactive: -4.07% | –
36 | CCN(c1ccccc1)c1nnc(NC(=O)Nc2cccc(Cl)c2C)s1 | inactive: 2.42% | –
37 | CC(=O)c1ccc(NC(=O)Nc2nnc(N3CCCC(C)C3)s2)cc1 (stereo not drawn) | inactive: -0.0685% | –
38 | CSc1ccc(-c2nc3ncccn3c2Nc2ccc(C)c(C)c2)cc1 | inactive: -12.8% | –
39 | Nc1cc(=O)nc(SCC(=O)Nc2cccc(Cl)c2)n1CCc1ccccc1 | inactive: -0.639% | –
40 | Cc1nc2c(C(=O)NCCc3ccccc3)cnn2c(C)c1Cc1c(F)cccc1Cl | inactive: 3.13% | –
41 | Cc1c2cnn(CC(=O)NCc3ccc(F)cc3)c(=O)c2c(C)n1Cc1ccccc1F | inactive: -9.85% | –
42 | CC(C)(C)OC(=O)N1CCC(c2c(C(=O)NCc3cccs3)cnn2-c2ccc(F)cc2F)CC1 | inactive: 3.77% | –
43 | COc1ccc(Cl)cc1Nc1ncnc2c1c(-c1ccccc1)cn2-c1ccccc1 | inactive: -21.5% | –
44 | CCOCCCNC(=O)c1cc2c(-c3ccc(OC)c(OC)c3)nn(C)c2s1 | inactive: 4.91% | –
45 | COCCN1CCc2nc(SCC(=O)Nc3ccc(Br)cc3)[nH]c(=O)c2C1 | inactive: -8.58% | –
46 | COc1ccc(NC(=O)Nc2sc3nc4n(c(=O)c3c2C)CCC(C)CC4)cc1OC (stereo not drawn) | inactive: 1.67% | –
47 | CCS(=O)(=O)c1ncc(Cl)c(C(=O)N2CCN(c3cccc(Cl)c3)CC2)n1 | – | active: 2610 nM
48 | NC(=O)C1(N2CCCCC2)CCN(C(=O)Nc2ccc(C(F)(F)F)cc2)CC1 | inactive: 4.06% | –

Row | SMILES | activity change, negative = inhibition | Potency
49 | Cc1ccc(NCc2ccccc2-c2nnc(-c3ccccc3Cl)o2)c(C)c1 | inactive: -9.41% | –
50 | COc1ccccc1-c1cc(C(F)(F)F)nc(S(=O)(=O)CCCC(=O)Nc2cc(OC)c(OC)c(OC)c2)n1 | inactive: 0% | –
51 | Cc1cc(C)c2c(=O)cc(CSc3nnc(COc4ccccc4C)n3C)[nH]c2c1 | inactive: 2.77% | –
52 | Cc1ccc2c(c1)c1c(c(=O)n(-c3ccccc3C)c(=O)n1CC(=O)NCc1ccccc1)n2C | inactive: -7.06% | –
53 | O=c1cc(-c2ccccc2)c2cc(Cl)c3c(c2o1)CN(Cc1ccccc1)CO3 | inactive: 6.15% | –
54 | COc1ccc(CC(=O)NCc2ccc3c(c2)CCN3C(=O)c2ccc(Cl)cc2)cc1OC | inactive: -3.91% | –
55 | Cc1cc(-c2ccc(C)c(S(=O)(=O)N(C)c3ccc(C)c(C)c3)c2)on1 | inactive: -13.2% | –
56 | COc1ccccc1NC(=O)Cn1c(=O)n(Cc2ccco2)c(=O)c2cccnc21 | inactive: -2.39% | –
57 | CCOC(=O)c1c(Oc2ccc(OC)cc2)nnc(-c2ccccc2)c1-c1ccccc1 | inactive: -1.81% | –
58 | Cc1ccc(OCCCn2c(CCNC(=O)C3CCCCC3)nc3ccccc32)c(C)c1 | inactive: -0.576% | –
59 | COc1ccc(OC)c(NC(=O)CN2C(=O)c3ccccc3Sc3ccc(C(=O)N4CCCC4)cc32)c1 | inactive: -11.7% | –
60 | COc1ccc(N(Cc2cccs2)C(=O)Nc2ccccc2)cc1 | inactive: -3.83% | –
61 | Cn1cnnc1SCC(=O)Nc1cc(C(=O)O)cc(C(=O)O)c1 | inactive: 1.12% | –
62 | Cc1nn(CC(=O)NC2CCCCC2)c(=O)c2cc3cc(F)ccc3n12 | inactive: 0.714% | –
63 | Cc1cccc(C(=O)NCC(c2ccc3c(c2)OCO3)N2CCN(c3ccccc3F)CC2)c1 (stereo not drawn) | inactive: -3.4% | –
64 | COc1cc(-c2noc(CSc3nc(-c4ccccc4)cc(=O)[nH]3)n2)cc(OC)c1OC | inactive: -7.39% | –
65 | COc1ccc(NC(=O)c2sc3nc4c(cc3c2N)CN(C(C)C)CC4)c(OC)c1 | inactive: -1.35% | –
66 | Cc1cc(=O)n2[nH]c(NCc3ccc(F)cc3)nc2n1 | inactive: -4.38% | –
67 | Cc1ccc(-n2nc(C)c3c(C)cc(=O)n(CC(=O)Nc4ccc(Br)cc4F)c32)cc1 | inactive: -1.04% | –
68 | COc1ccc(S(=O)(=O)c2c(Nc3ccc(C)cc3)sc(C(=O)c3ccc(C)cc3)c2N)cc1 | inactive: 3.3% | –
69 | O=C(CCCn1c(=O)c2cccn2c2ccc(F)cc21)NCCc1ccccc1 | inactive: -10.2% | –
70 | CCOC(=O)CSc1nc2ccc(NC(=O)c3ccc(F)cc3)cc2s1 | inactive: -20.2% | –
71 | Cc1ccc(Cl)cc1NC(=O)Nc1c(C)n(C)n(-c2ccccc2)c1=O | inactive: 12.5% | –
72 | Cc1ccc(CSCC(=O)NCc2ccc(F)cc2)cc1 | inactive: 16.8% | –

Row | SMILES | activity change, negative = inhibition | Potency
73 | COc1ccc(NC(=O)Cn2cc(S(=O)(=O)c3ccc(C)cc3)c(=O)c3ccccc32)cc1OC | inactive: -15% | –
74 | COc1ccc(-c2noc(-c3ccc(NCc4ccco4)c([N+](=O)[O-])c3)n2)cc1 | inactive: -1.68% | –
75 | CCOC(=O)c1cccc(NC(=O)CCc2c(C)nc3cc(-c4ccc(Cl)cc4)nn3c2C)c1 | inactive: -1.61% | –
76 | CC1=C(C(=O)Nc2cccnc2)C(c2cccc(O)c2)n2nc(SCc3ccccc3)nc2N1 (stereo not drawn) | inactive: 3.36% | –
77 | Cc1cc(C)c(Cn2c(CCNC(=O)c3ccco3)nc3ccccc32)c(C)c1 | inactive: -15% | –
78 | CCCn1c(=O)n(-c2cc(Cl)c(OC)cc2OC)c(=O)c2c3c(sc21)CN(C(C)=O)CC3 | inactive: -0.318% | –
79 | Cc1ccc([C@H]2Nc3ccc(S(=O)(=O)Nc4cccc(Cl)c4C)cc3[C@H]3C=CC[C@H]32)cc1 | inactive: -19.8% | –
80 | CCn1cc(CCC(=O)NCc2ccc(F)cc2)c2ccccc21 | inactive: -4.44% | –
81 | Cc1ccc(Nc2nnc(-c3ccc(C)c(S(=O)(=O)N4CCN(C)CC4)c3)c3ccccc23)c(C)c1 | inactive: -24.9% | –
82 | CCCN(C(=O)c1nn(-c2ccc(OC)c(Cl)c2)c(=O)c2c1c1ccccc1n2C)c1ccccc1F | inactive: 0.125% | –
83 | COc1ccc(OC)c(NC(=O)Cn2cnc3sc(C)c(S(=O)(=O)N4CCN(c5ccccc5OC)CC4)c3c2=O)c1 | inactive: 2.79% | –
84 | CCOc1ccccc1CNC(=O)C1CCN(C2=NS(=O)(=O)C(c3ccc(C)c(C)c3)=C2C)CC1 | inactive: -8.35% | –
85 | COc1ccc(C(=O)N2CCC(c3nc4ccccc4o3)CC2)cc1 | inactive: 0.42% | –
86 | CCOc1ccc(C(=O)NCCc2csc(-c3ccc(C(F)(F)F)cc3)n2)cc1OCC | inactive: -0.0367% | –
87 | COc1ccc(C(=O)Nc2cc(C(C)C)c(O)c(S(=O)(=O)c3ccc(OC)cc3)c2C)cc1 | inactive: 11.7% | –
88 | c1ccc(Cc2nnc(SCc3nc(-c4cccs4)no3)n2-c2ccccc2)cc1 | inactive: -4.15% | –
89 | Cc1ccccc1N1CCN(S(=O)(=O)c2nnc(NC(=O)c3ccccc3)s2)CC1 | inactive: 1.54% | –
90 | COc1ccc(S(=O)(=O)c2c(Nc3ccc(F)cc3)sc(C(=O)c3ccc(C)cc3C)c2N)cc1 | inactive: -1.83% | –
91 | COc1cccc(NC(=O)c2sc3nc(C)c(C(=O)Nc4ccc(C)cc4C)c(-c4sccc4C)c3c2N)c1 | inactive: -15.4% | –
92 | O=c1c2oc3ccccc3c2n(Cc2cccc(F)c2)c(=O)n1Cc1ccco1 | inactive: -1.57% | –
93 | CC(C)c1ccc2oc(-c3cc(NC(=O)c4cccs4)ccc3Cl)nc2c1 | inactive: -1.59% | –

Source: PubChem BioAssay AID493208 (National Center for Advancing Translational Sciences (NCATS), 2011)
